According to PubChem BioAssay AID488969 (Vanderbilt High Throughput Screening Facility, 2010):
Over roughly 110,000 compounds, “z-score” has its median near -0.1; the highest 2% begin near 2. Some of the results follow. The source made the active and inactive calls.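 How the source made its calls: active means z-score in the third read window above 3 or below -3; inactive means the rest.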

target: Metabotropic glutamate receptor 8 (Rattus norvegicus) (UniProt P70579); assay: rat mGluR8 modulators via GIRK flux, primary screen, cell-based, thallium flux, HTS (AID 488969); details: HEK293 rat mGluR8, GIRK (G protein-gated inwardly rectifying potassium channel) thallium flux, FluoZin2; at 10 µM; stronger effect = higher value
Chain of UniProt P70579 (P70579 whole entry, looked up): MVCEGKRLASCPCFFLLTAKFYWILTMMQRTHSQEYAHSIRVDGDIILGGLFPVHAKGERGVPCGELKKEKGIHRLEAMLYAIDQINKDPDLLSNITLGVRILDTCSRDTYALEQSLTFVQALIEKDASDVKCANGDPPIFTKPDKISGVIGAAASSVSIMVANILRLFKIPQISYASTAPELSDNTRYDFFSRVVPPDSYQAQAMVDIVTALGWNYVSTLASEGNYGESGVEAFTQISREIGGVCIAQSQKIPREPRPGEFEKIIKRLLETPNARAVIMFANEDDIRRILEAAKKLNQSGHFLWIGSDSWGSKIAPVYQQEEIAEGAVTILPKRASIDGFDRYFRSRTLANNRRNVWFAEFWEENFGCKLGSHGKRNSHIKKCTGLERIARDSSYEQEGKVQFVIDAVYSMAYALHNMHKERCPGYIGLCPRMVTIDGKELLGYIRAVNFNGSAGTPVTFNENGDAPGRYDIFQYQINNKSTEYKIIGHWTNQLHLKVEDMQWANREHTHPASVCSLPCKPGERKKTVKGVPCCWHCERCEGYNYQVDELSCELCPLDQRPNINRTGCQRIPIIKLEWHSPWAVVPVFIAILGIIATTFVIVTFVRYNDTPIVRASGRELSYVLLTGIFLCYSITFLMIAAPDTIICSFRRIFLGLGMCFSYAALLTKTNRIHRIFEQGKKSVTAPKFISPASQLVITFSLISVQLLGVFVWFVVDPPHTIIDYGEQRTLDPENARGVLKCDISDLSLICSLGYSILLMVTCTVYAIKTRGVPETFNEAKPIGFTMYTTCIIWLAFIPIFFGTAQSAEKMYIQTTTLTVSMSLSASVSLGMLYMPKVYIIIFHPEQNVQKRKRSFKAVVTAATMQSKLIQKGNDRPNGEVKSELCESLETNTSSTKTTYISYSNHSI

Row | SMILES | z-score
1 | Cc1ccc(S(=O)(=O)NCCC(=O)Nc2ccc(Cl)cc2C(=O)c2ccccc2)cc1 | -0.553
2 | COC(=O)C(O)(c1ccc(NC(=S)NC(=O)c2ccc(Cl)cc2Cl)cc1)C(F)(F)F (configuration not stated) | 0.304
3 | CC1=NN(c2ccccc2)C(=O)/C1=C/c1c(O)[nH]c(=S)[nH]c1=O | -0.419
4 | Cc1ccc(S(=O)(=O)Nc2cc(C(=O)N3CCC4(CC3)OCCO4)ccc2N2CCCCC2)cc1 | -0.853
5 | O=C(c1cccn2c(=O)c3ccccc3nc12)N1CCC2(CC1)OCCO2 | -0.138
6 | CCn1c(=O)n(CC(=O)N2CCC3(CC2)OCCO3)c(=O)c2ccccc21 | -0.443
7 | O=C(COc1ccc2ccccc2c1)N1CCN(Cc2ccncc2)CC1 | 0.0955
8 | CN1/C(=C\C=C\C2=[N+](C)c3ccc4ccccc4c3C2(C)C)C(C)(C)c2ccccc21 | active: 5.85
9 | CCCC(=O)C1C(=O)NC(=O)NC1=O | -0.0916
10 | CCCN1CC(C)C(OC(C)=O)(c2ccccc2)CC1C (configuration not stated) | 0.304
11 | COc1ccc(Cn2c(O)c(C=NCCCn3ccnc3)c(=O)[nH]c2=O)cc1 | 0.683
12 | OC(c1ccccc1)(c1ccccc1)C1CCCN1 (configuration not stated) | 0.0188
13 | CCN1CCN(Cc2cc(Br)cc(Br)c2O)CC1 | 0.0865
14 | Nc1ccccc1C(=O)OCC(=O)Nc1ccc(Br)cc1F | -0.32
15 | CCCNC(=O)c1c(N)n(Cc2ccco2)c2nc3ccccc3nc12 | -0.116
16 | COc1ccccc1CN1CCN(C(=O)COc2cccc(C)c2)CC1 | 0.339
17 | CCCN(CC#CCOc1ccc(OC)cc1)CCC | -0.216
18 | CCOc1ccccc1-n1c(O)c(C=Nc2c(C)n(C)n(-c3ccccc3)c2=O)c(=O)[nH]c1=O | -0.694
19 | CCC1(CCCC(=O)c2ccc(F)cc2)C(=O)NC(=S)NC1=O | 0.56
20 | O=C1NC(=S)N(c2ccc(Cl)cc2)C(=O)/C1=C/N1CCN(C(=O)c2ccco2)CC1 | -0.294
21 | COc1cc(C(=O)Nc2ccc(Br)cc2C(=O)c2ccccc2)cc(OC)c1OC | -0.262

Row | SMILES | z-score
22 | CC12CN3CC(c4ccccc4)(CN(C1)C31CCCCC1)C2=O | -0.188
23 | O=C(O)Cn1cc(C(=O)c2ccccc2)c2ccccc21 | 0.116
24 | C=CCn1c(O)c(C=NCCN2CCNCC2)c(=O)[nH]c1=O | 0.147
25 | CCOc1ccc(CN(CCCl)CCCl)cc1C(=O)OC | 0.188
26 | CCOC(=O)CC1=C(C(=O)OCC)C2(C(=O)N1CC(=O)OC)C(C#N)=C(N)Oc1ccccc12 (configuration not stated) | 0.076
27 | CC/C(=N\N1CCN(C)CC1)c1c(O)[nH]c(=O)[nH]c1=O | -0.343
28 | O=C(c1ccco1)c1cn(Cc2ccccc2)c2ccccc12 | -1.14
29 | CN1CCN(c2ccc(NC(=O)Oc3ccccc3)cc2)CC1 | -0.0101
30 | O=C1NC(=O)C2(Cc3ccccc3N3CCOCC32)C(=O)N1c1ccccc1 (configuration not stated) | 0.278
31 | CCN(C(=O)Oc1ccccc1)c1ccc(C(O)(C(=O)OC)C(F)(F)F)cc1 (configuration not stated) | -0.236
32 | CC(=O)c1ccc2c(c1)C1C(Cl)C(Sc3ccccc3[N+](=O)[O-])CC1C(C(=O)O)N2 (configuration not stated) | 0.0302
33 | CCCc1nnc(NC(=O)CCC(=O)N2CCN(CCOC(c3ccccc3)c3ccccc3)CC2)s1 | -1.15
34 | O=C1CC(N2CC=C(c3ccc(F)cc3)CC2)C(=O)N1c1ccc(F)cc1 (configuration not stated) | 0.131
35 | CC(C)Nc1nc(Cl)nc(NC(C)C)n1 | 0.193
36 | O=C(Nc1ccccc1OC(=O)N1CCCCC1)N1CCCCC1 | -0.408
37 | O=C(CCN1CCOCC1)NCC(=O)Nc1ccc(Br)cc1C(=O)c1ccccc1 | -0.201
38 | CCOc1cccc(OCC)c2c(C)[n+](CC3CCCO3)c(C)c1-2 (configuration not stated) | -0.993
39 | O=P(OCC(F)(F)C(F)F)(N1CCOCC1)N1CCOCC1 | 1.67
40 | CCOCCCN=Cc1c(O)n(Cc2ccccc2)c(=O)[nH]c1=O | 0.0752
41 | C[N+]12CCC(CC1)C(C(O)(c1ccccc1)c1cccs1)C2 (configuration not stated) | -0.0204
42 | CCC(C)NS(=O)(=O)c1ccc(OCC(=O)N2CCN(CC)CC2)cc1 (configuration not stated) | 0.685

Row | SMILES | z-score
43 | CN1c2ccc([N+](=O)[O-])cc2CC2(C(=O)NC(=O)NC2=O)C1c1ccccc1 (configuration not stated) | 0.507
44 | CCCCn1c(O)c(C(CC)=Nc2ccc(C(=O)O)cc2)c(=O)[nH]c1=O | 0.472
45 | COC(=O)C(O)(c1c(C)[nH]n(-c2ccccc2)c1=O)C(F)(F)F (configuration not stated) | -0.853
46 | CS(=O)(=O)NCc1nnc2n1-c1ccc(Cl)cc1C(c1ccccc1)=NC2 | -0.129
47 | Oc1c(Br)cc(Br)cc1CN1CCN(Cc2ccccc2)CC1 | -0.125
48 | [O-][n+]1onc2c1CCC1N(O)CCC21O (configuration not stated) | 0.089
49 | CNCCc1c(C)n[nH]c1C | 0.202
50 | CC12CN3CCN(CC(C3)C1O)C2 (configuration not stated) | 0.0469
51 | CNP1(NC)=Nc2nn(-c3ccccc3)c(N)c2C(c2ccccc2)=N1 | 0.657
52 | CN1CCC2(CC1)C(C#N)=C(N)NC(S)=C2C#N | -0.227
53 | CCN1CCN(CC(=O)c2c(C)n(Cc3ccccc3)c3ccc(OC)cc23)CC1 | 0.191
54 | O=C1NC(=O)[C@]2(Cc3ccccc3N3CCN(c4ccccc4)CC32)C(=O)N1c1ccccc1 (some centres not stated) | 0.0657
55 | COc1ccc(C2SCC(=O)Nc3c2c(=O)[nH]n3C2CCCCC2)cc1 (configuration not stated) | -0.0665
56 | Cc1ccc(NP(=O)(Oc2ccccc2F)Oc2ccccc2F)cc1 | -0.159
57 | CCCCn1c(N)c(C(=O)OCC2CCCO2)c2nc3ccccc3nc21 (configuration not stated) | 0.91
58 | CC(O)(CS(=O)(=O)c1cccc(C(F)(F)F)c1)C(=O)Nc1cccc(C(F)(F)F)c1 (configuration not stated) | -0.217
59 | CCN1C(=O)C(=C/C=C/c2ccco2)C(=O)N(CC)C1=S | -0.628
60 | Cc1cccc(N=Cc2c(O)n(-c3ccccc3C)c(=O)[nH]c2=O)c1 | -0.357
61 | CCCCCCCC(=O)NC(Oc1ccccc1[N+](=O)[O-])C(Cl)(Cl)Cl (configuration not stated) | 0.238
62 | Cc1ccc(C)c(CN2CCC(n3nnc4cc(F)ccc43)CC2)c1 | -0.0995
